From PubChem BioAssay AID938 (National Center for Advancing Translational Sciences (NCATS), 2007)
In all, about 73,000 compounds went through this assay and about 1,800 (2.5%) were called active. The shares of active, inactive and inconclusive entries below differ from those in the screen. The call rests on the fitted dose curve; in most records, active means well fitted activation curve with a large enough effect; inconclusive means small, poorly fitted or top-dose-only effect; inactive means no such curve, though single readings can be large or run the other way. Potencies beside an inconclusive call are fits to weak or partial responses and may not hold up.

Test: qHTS Assay for Agonists of the Thyroid Stimulating Hormone Receptor: Activators of Intracellular cAMP Concentrations in Parental HEK 293; further: nearly all actives have a fitted effect of over 55% in size; on activation: % of control where 0% means no effect
Settings: parental HEK293 CNG cAMP sensor, membrane potential fluorescence; activation: at 57.1 µM (top of the series) unless noted
In short: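 Parental HEK 293 cells stably expressing a cAMP-gated CNG channel were loaded with membrane potential dye containing 100 uM RO 20-1724 for 60 min. Compound added for 30 min; depolarization read as fluorescence intensity at 590 nm.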
Potency means the concentration at half of the fitted maximal effect; tags describe the fitted curve by direction and shape.

Question: With `COc1ccc(CNc2ncncc2-c2ccc(C(=O)N(C)C)cc2)c(OC)c1` as the compound, how does the “activation” value read?
Answer: Its value is inactive: 13.3%.

Question: With `O=C(CCCC(=O)N(CC(=O)NC1CCCCC1)Cc1ccc2c(c1)OCO2)Nc1ccccn1` as the compound, how does the Potency read?
Answer: Its Potency is inconclusive: 31.6 µM [activator, single point].

Question: With `Cc1cc2ccccc2n1CCNC(=O)C1CC1` as the compound, how does the Potency read?
Answer: Its Potency is inconclusive: 25.1 µM [activator, single point].

Question: Which Potency does the source give for `CCOc1ccccc1N(CC(=O)N1CCOCC1)S(=O)(=O)c1ccc(SC)cc1` here?
Answer: The Potency was inconclusive: 20 µM [activator, partial curve].

Question: For `C=C(C)C(=O)OCCCCCCCCCC`, which “activation” value is on record?
Answer: The value was inactive: -3.73%.

Question: For `CCCCn1nnnc1SCC(=O)c1ccc(C)c(C)c1`, which Potency is on record?
Answer: Its Potency is inconclusive: 15.8 µM [activator, partial curve].

Question: Which Potency does the source give for `CCc1cc2cc3c(cc2nc1SCC(=O)Nc1cc(C)on1)OCO3` here?
Answer: Its Potency is inconclusive: 6.31 µM [activator, partial curve].

Question: For `C/C(=C\c1ccco1)C1C(C#N)=C(N)OC2=C1C(=O)CC(C)(C)C2` (stereo not drawn), which Potency is on record?
Answer: Its Potency is inconclusive: 25.1 µM [activator, single point].

Question: Which Potency does the source give for `COc1cc(OC)cc(C(=O)OCn2nnc3ccccc3c2=O)c1` here?
Answer: The Potency was inconclusive: 10 µM [activator, partial curve].

Question: Which Potency does the source give for `CN(C)S(=O)(=O)c1ccc(C(=O)Nc2ccccc2OC(F)(F)C(F)F)cc1` here?
Answer: The Potency was inconclusive: 31.6 µM [activator, single point].

Question: With `COc1cccc(-c2ccc3ncnc(NCc4ccc(OC)cc4OC)c3c2)c1` as the compound, how does the Potency read?
Answer: The Potency was inconclusive: 0.631 µM [activator, full curve, poor fit].

Question: With `CCCC(=O)N1CCc2cc(-c3nc(N)sc3C)ccc21` as the compound, how does the “activation” value read?
Answer: The value was inactive: 1.36%.

Question: For `COC(=O)N1CCC2(CCCN(Cc3nccs3)C2)CC1`, which Potency is on record?
Answer: Its Potency is inconclusive: 20 µM [activator, partial curve].

Question: For `Cc1cccc(C)c1NC(=O)C1(N(Cc2ccco2)C(=O)c2ccccn2)CCCC1`, which Potency is on record?
Answer: The Potency was inconclusive: 7.94 µM [activator, partial curve].

Question: For `Cc1oc(-c2ccccc2)nc1Cn1cccc1C1=NC(c2ccccc2)CO1` (stereo not drawn), which Potency is on record?
Answer: Its Potency is inconclusive: 5.01 µM [activator, full curve].

Question: Which “activation” value does the source give for `CC(=O)Nc1ccc(S(=O)(=O)NCc2cn3ccsc3n2)cc1` here?
Answer: Its value is inactive: 4.33%.

Question: With `Cc1nc2cnc(OCc3ccccc3)nc2n(CCc2ccccc2)c1=O` as the compound, how does the Potency read?
Answer: The Potency was active: 10 µM.

Question: With `COC(=O)c1c(C(=O)OC)c2n(c1C)Cc1ccccc1C2` as the compound, how does the “activation” value read?
Answer: The value was inactive: -2.65%.

Question: For `Fc1ccc(C(c2nnnn2Cc2ccccc2)N2CCSCC2)cc1` (stereo not drawn), which Potency is on record?
Answer: The Potency was active: 12.6 µM.

Question: Which Potency does the source give for `Cc1cnc(CNc2ncnc3ccc(-c4ccccc4C(F)(F)F)cc23)cn1` here?
Answer: Its Potency is inconclusive: 1.26 µM [activator, full curve, poor fit].

Question: For `C/C(N)=C(/C#N)C(=O)CSc1nnnn1-c1ccc(C)cc1`, which Potency is on record?
Answer: The Potency was inconclusive: 39.8 µM [activator, single point].

Question: With `CCOC(=O)N1CCN(C(=O)C2CC(c3ccccc3OC)=NO2)CC1` (stereo not drawn) as the compound, how does the “activation” value read?
Answer: The value was inactive: 5.22%.

Question: Which “activation” value does the source give for `COc1ccc(S(=O)(=O)Nc2ccc3c(c2)OCO3)cc1OC` here?
Answer: The value was inactive: 4.7%.

Question: Which Potency does the source give for `COc1ccc(-c2cc(C(F)F)n3ncc(C(=O)N4CCN5CCCC5C4)c3n2)cc1` (stereo not drawn) here?
Answer: Its Potency is active: 15.8 µM.

Question: Which Potency does the source give for `Cc1ccccc1-c1nc(NCc2cccnc2)c2ccccc2n1` here?
Answer: Its Potency is inconclusive: 3.98 µM [activator, single point].

Question: Which activation does the source give for `O=C1c2ccccc2S(=O)(=O)N1Cc1nnc(-c2ccccc2Br)o1` here?
Answer: Its activation is inconclusive: 30.9% [activator].

Question: For `CCN(CC)CCNC(=O)c1c(O)c2cccc3c2n(c1=O)CCC3`, which Potency is on record?
Answer: The Potency was inconclusive: 6.31 µM [activator, partial curve].

Question: For `c1nc(NC2CCNCC2)c2cc(-c3ccc4c(c3)OCO4)ccc2n1`, which Potency is on record?
Answer: Its Potency is inconclusive: 3.16 µM [activator, single point].

Question: With `C=C(C)COc1ccc2c3c(c(=O)oc2c1OCC(=C)C)CCC3` as the compound, how does the Potency read?
Answer: The Potency was active: 25.1 µM.

Question: Which “activation” value does the source give for `N#CCCn1c(=O)c(-c2cccs2)nc2cnc(Oc3cccc(Cl)c3)nc21` here?
Answer: Its value is inactive: -23.2%.

Question: For `O=C(CSc1ncnc2sc3c(c12)CCCCC3)NCc1ccco1`, which Potency is on record?
Answer: The Potency was inconclusive: 31.6 µM [activator, single point].

Question: For `Cc1ccc(S(=O)(=O)N2CCN(C(=O)c3ccccc3)C2C(C)C)cc1` (stereo not drawn), which Potency is on record?
Answer: The Potency was inconclusive: 20 µM [activator, partial curve].

Question: Which Potency does the source give for `C[C@H](NC(=O)NCCc1ccccc1)C(=O)O` here?
Answer: The Potency was inconclusive: 15.8 µM [activator, partial curve].

Question: For `CCn1ncc2c(OCc3ccc(C#N)cc3)cc(C)nc21`, which Potency is on record?
Answer: Its Potency is inconclusive: 25.1 µM [activator, single point].

Question: For `CC1CCC(C(=O)O)NC1c1ccc(-c2ccco2)cc1` (stereo not drawn), which activation is on record?
Answer: Its activation is inactive: 5.18% [at 11.4 µM].

Question: For `COc1ccc(C2=NOC(C(=O)NCc3ccccc3)C2)cc1` (stereo not drawn), which Potency is on record?
Answer: Its Potency is inconclusive: 25.1 µM [activator, single point].

Question: With `CN(C)S(=O)(=O)c1ccc(S(=O)(=O)Nc2ccc3c(c2)oc2ccccc23)cc1` as the compound, how does the Potency read?
Answer: Its Potency is inconclusive: 15.8 µM [activator, partial curve].

Question: Which Potency does the source give for `CC(C)/C=C1\CCCCC1N(C)C(=O)NC(C)C` (stereo not drawn) here?
Answer: Its Potency is inconclusive: 15.8 µM [activator, partial curve].

Question: Which Potency does the source give for `Cc1ccccc1OCc1nc(-c2ccccc2)no1` here?
Answer: Its Potency is inconclusive: 3.16 µM [activator, single point].

Question: For `CN1CCN([C@@H]2Cc3ccccc3Sc3ccc(Cl)cc32)CC1`, which Potency is on record?
Answer: Its Potency is inconclusive: 31.6 µM [activator, single point].

Question: For `COc1ccc(OC)c(NC(=O)CSCc2cnn(-c3ccccc3)c2-n2cccc2)c1`, which Potency is on record?
Answer: Its Potency is active: 25.1 µM.

Question: With `CCOC(=O)c1c(CN2CCN(C)CC2)oc2ccc(O)cc12` as the compound, how does the “activation” value read?
Answer: Its value is inactive: 2.9%.

Question: With `O=C(O)C[C@H](Sc1ccccc1)c1ccccc1` as the compound, how does the activation read?
Answer: The activation was inconclusive: 76.2% [activator] [at 11.4 µM].

Question: Which Potency does the source give for `N#CCCSC(=S)[C@H]1CCCC1=N` here?
Answer: Its Potency is inconclusive: 1.58 µM [activator, single point].

Question: For `O=C1c2ccccc2C(Nc2ccc(Cl)cn2)N1c1ccccn1` (stereo not drawn), which Potency is on record?
Answer: The Potency was active: 15.8 µM.

Question: Which activation does the source give for `CS[C@@H](CC(=O)O)C(=O)O` here?
Answer: The activation was inactive: 1.83% [at 11.4 µM].

Question: Which “activation” value does the source give for `CC(=O)N(C)c1nc(-c2ccc(Cl)cc2)cs1` here?
Answer: Its value is inactive: -10.5%.

Question: With `O=C(Nc1ccc(Cl)cc1C(=O)Nc1ccc(Br)cn1)c1ccco1` as the compound, how does the Potency read?
Answer: The Potency was active: 20 µM.

Question: Which Potency does the source give for `O=C(C1CCN(c2nnc(-n3cccc3)s2)CC1)N1CCc2ccccc2C1` here?
Answer: The Potency was inconclusive: 25.1 µM [activator, single point].

Question: Which “activation” value does the source give for `CN(C)S(=O)(=O)c1cccc(-c2nnc(SCc3cc(Cl)cc4c3OCOC4)n2N)c1` here?
Answer: Its value is inactive: 21.4%.

Question: Which Potency does the source give for `CCCCCC[C@@H]([C@H](C)O)n1cnc2c(N)ncnc21` here?
Answer: The Potency was active: 31.6 µM.

Question: With `CCC1Oc2ccc(C)cc2N(CC(=O)NCCCN2CCN(Cc3ccccc3)CC2)C1=O` (stereo not drawn) as the compound, how does the Potency read?
Answer: The Potency was inconclusive: 25.1 µM [activator, single point].

Question: Which “activation” value does the source give for `O=C(Nc1cccs1)NC1CCCC1` here?
Answer: Its value is inactive: 0.522%.

Question: With `CCn1c(SCC(=O)N2c3ccccc3Sc3ccccc32)nnc1-c1ccco1` as the compound, how does the Potency read?
Answer: Its Potency is inconclusive: 31.6 µM [activator, single point].

Question: For `O=C(NC1CCCCC1)c1ccc(S(=O)(=O)NCc2cccnc2)cc1`, which Potency is on record?
Answer: Its Potency is inconclusive: 15.8 µM [activator, partial curve].

Question: With `Cc1cc(-c2nnco2)c(C)n1-c1ccccc1` as the compound, how does the Potency read?
Answer: The Potency was active: 20 µM.

Question: Which Potency does the source give for `CCOc1ccc2[nH]c(=O)c(CN(Cc3ccc(C)cc3)C(=O)N3CCCC3)cc2c1` here?
Answer: The Potency was active: 31.6 µM.

Question: With `CCCc1c(O)nc(SCCN(CCC)CCC)[nH]c1=O` as the compound, how does the Potency read?
Answer: Its Potency is inconclusive: 3.98 µM [activator, single point].

Question: With `Cc1cccc2cc(C(c3nnnn3Cc3ccccc3)N3CCN(C)CC3)c(=O)[nH]c12` (stereo not drawn) as the compound, how does the Potency read?
Answer: The Potency was inconclusive: 31.6 µM [activator, single point].

Question: Which “activation” value does the source give for `COc1ccc(C(=O)N(Cc2ccco2)C(C(=O)NC2CCCC2)c2ccc(O)cc2)cc1OC` (stereo not drawn) here?
Answer: Its value is inactive: 13.3%.

Question: For `Fc1ccc(-c2nn3c(C4COc5ccccc5O4)nnc3s2)cc1` (stereo not drawn), which Potency is on record?
Answer: Its Potency is inconclusive: 20 µM [activator, single point].

Question: With `CC1(C)OC(=O)CC1C(=O)NCc1ccccc1` (stereo not drawn) as the compound, how does the Potency read?
Answer: The Potency was inconclusive: 6.31 µM [activator, single point].

Question: Which Potency does the source give for `Cc1ccsc1/C=N/n1cnc2sc(C)c(C)c2c1=O` here?
Answer: Its Potency is inconclusive: 6.31 µM [activator, single point].

Question: With `CC(C)(C)C(=O)Cn1c[n+](N)cn1` as the compound, how does the Potency read?
Answer: The Potency was inconclusive: 39.8 µM [activator, single point].

Question: Which Potency does the source give for `O=C(c1csnn1)N1CCC2(CCCN(c3ccccn3)C2)CC1` here?
Answer: The Potency was inconclusive: 5.01 µM [activator, single point].

Question: With `C=CCN(CC=C)c1nc2ccccc2nc1C(C#N)C(=O)OCCOC` (stereo not drawn) as the compound, how does the Potency read?
Answer: The Potency was inconclusive: 39.8 µM [activator, single point].

Question: Which “activation” value does the source give for `CC(C)C[C@@H](CC(=O)N[C@@H](CCC(=O)O)CC(=O)O)NC(=O)[C@@H]1CNCC[C@H]1NC(=O)C[C@H](CCCN)NC(=O)C[C@H](CO)NC(=O)[C@@H]1CCCC[C@H]1N` here?
Answer: The value was inactive: 21.7%.

Question: With `O=C(Oc1cccc(Br)c1)c1cccnc1` as the compound, how does the Potency read?
Answer: Its Potency is inconclusive: 0.794 µM [activator, single point].

Question: With `COCCn1c(=O)c(C)nc2cnc(Oc3cccc(Cl)c3)nc21` as the compound, how does the Potency read?
Answer: The Potency was inconclusive: 6.31 µM [activator, partial curve].

Question: With `O=C(CN1CCOc2ccccc21)NC1CCN(Cc2ccccc2)CC1` as the compound, how does the “activation” value read?
Answer: The value was inactive: 20.2%.

Question: With `Cc1cc(C)c(O)c(-c2cc(C(=O)Nc3ccc(S(=O)(=O)N4CCOCC4)cc3)[nH]n2)c1` as the compound, how does the Potency read?
Answer: The Potency was inconclusive: 6.31 µM [activator, single point].

Question: For `CSc1ccccc1NC(=O)c1onc(C)c1Cl`, which “activation” value is on record?
Answer: Its value is inactive: 16.3%.

Question: Which Potency does the source give for `CCCNC(=O)NC(=O)CSc1nc2ccccc2n1CC(C)C` here?
Answer: The Potency was inconclusive: 31.6 µM [activator, single point].
